# Reference: PubChem BioAssay AID588795 (National Center for Advancing Translational Sciences (NCATS), 2011)
# Out of some 390,000 compounds screened, about 1,400 (0.36%) were called active. The shares of active, inactive and inconclusive entries below differ from those in the screen. Calls follow the shape of the dose curve; as a rule, active = well fitted inhibition curve with a large enough effect; inconclusive = small, poorly fitted or top-dose-only effect; inactive = no such curve, though single readings can be large or run the other way. A potency beside an inconclusive call is a rough fit, not a confirmed value.
# Biological target: Flap endonuclease 1 (Homo sapiens) (UniProt P39748)
# UniProt P39748, sequence (P39748 whole entry, looked up): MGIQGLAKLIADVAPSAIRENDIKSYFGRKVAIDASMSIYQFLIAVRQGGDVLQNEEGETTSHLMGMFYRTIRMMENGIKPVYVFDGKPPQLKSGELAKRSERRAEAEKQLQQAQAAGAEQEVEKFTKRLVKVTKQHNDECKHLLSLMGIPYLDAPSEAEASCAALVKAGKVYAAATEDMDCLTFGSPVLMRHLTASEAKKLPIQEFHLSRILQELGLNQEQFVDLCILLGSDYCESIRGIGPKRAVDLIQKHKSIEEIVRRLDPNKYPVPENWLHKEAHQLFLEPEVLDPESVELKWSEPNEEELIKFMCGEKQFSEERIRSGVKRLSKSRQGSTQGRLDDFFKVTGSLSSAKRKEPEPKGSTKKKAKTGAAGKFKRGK
# Test: qHTS Assay for the Inhibitors of Human Flap endonuclease 1 (FEN1). Also: nearly all actives have a fitted effect of over 65% in size.
# Details: Recombinant FEN1 flap cleavage, fluorescence, 15 min; series mostly up to 114 µM; activity change, negative = inhibition: at the top concentration
# Summary of the method: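 FEN1 at 10 nM, compound pretreatment for 15 min (room temperature), 50 nM final substrate to initiate; endpoint reads at 0 and 15 min; DMSO-only plates used as vehicle background.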
# % is scaled to controls: 0 for no effect and ±100 for the full control effect; potency is read from the fitted curve at half-maximal effect; tags tell the direction and shape of the fitted curve.
Compound,"activity change, negative = inhibition",Potency
COc1ccc(C2/C=C\CN(S(=O)(=O)c3ccc(C)cc3)C(Cc3ccccc3)C(=O)N2Cc2ccc(F)cc2)cc1 (stereo not given),inactive: -19.2%,–
Cc1cnc(C=NNC(N)=S)c2cccc(N)c12,–,"inconclusive: 44.7 µM [inhibitor, partial curve]"
CCCN(CCC)S(=O)(=O)c1ccc(C(=O)N2CCCc3ccccc32)cc1,–,"inconclusive: 89.1 µM [inhibitor, partial curve, poor fit]"
COc1ccc(NC(=O)CN2C(=O)C(c3ccccc3)=NC23CCC(C)CC3)cc1Cl (stereo not given),inactive: -24.9%,–
O=C1C(Nc2cccc(O)c2)=C(N2CCCCC2)C(=O)c2ccccc21,–,"inconclusive: 79.4 µM [inhibitor, single point]"
C/C=C/c1ccc(OCC(=O)OCc2csc(CC(=O)Nc3ccccc3C)n2)c(OC)c1,–,"inconclusive: 89.1 µM [inhibitor, single point]"
CN(C)CCCNc1c2ccccc2nc2ccccc12,–,active: 11.2 µM
CCc1c(-c2ccccc2)nc2sc3c(c2c1N)CCCC3,–,"inconclusive: 14.1 µM [inhibitor, partial curve, poor fit]"
Oc1ccc(C2CNCc3sccc32)cc1O (stereo not given),–,inactive
Cc1cc2c(=Cc3ccc(N(C)C)cc3)c3ccccc3n2[n+]1C,–,active: 14.1 µM
CCOc1ccc(C2C(C(C)=O)=C(O)C(=O)N2CCc2c[nH]c3ccccc23)cc1 (stereo not given),–,"inconclusive: 79.4 µM [inhibitor, single point]"
Oc1ccc(C(=Nc2ccccc2)c2ccccc2)c(O)c1,–,"inconclusive: 79.4 µM [inhibitor, partial curve, poor fit]"
CCCCCCOC(=O)c1ccc(OC(=O)c2cccnc2)cc1,–,"inconclusive: 89.1 µM [inhibitor, partial curve, poor fit]"
O=[N+]([O-])c1c(NCCCO)cc(Sc2nc3ccccc3s2)c2nonc12,–,active: 39.8 µM
Cc1ccc(OCC(=O)Nc2ccccc2Sc2ccc(Cl)cc2)c([N+](=O)[O-])n1,–,"inconclusive: 89.1 µM [inhibitor, partial curve, poor fit]"
Cc1c(Cc2ccccc2)c(=O)oc2c(O)c(O)ccc12,–,"inconclusive: 28.2 µM [inhibitor, single point]"
O=C(Cn1ncc(Cl)c(Cl)c1=O)N1CCN(Cc2ccccc2)CC1,inactive: 20.1%,–
COc1ccc(Cn2c(C(=O)O)c(CNC3CCC(C)CC3)c3ccc(C)cc32)cc1 (stereo not given),inactive: 13.8%,–
CCC(Oc1ccccc1)C(=O)NC1C(=O)N2C1SC(C)(C)C2C(=O)O (stereo not given),inactive: 1.57%,–
O=C(/C=C/c1ccccc1Cl)Nc1ccncc1,inactive: -11.9%,–
